{"source": "PubChem BioAssay AID651820", "about": "(National Center for Advancing Translational Sciences (NCATS), 2012)", "note": "Values joined by “and” are separate entries in the source; they are usually repeats but may differ in a detail not shown here. Identical values can stand only once. The whole screen tested about 340,000 compounds, of which about 12,000 (3.5%) were called active. This list was built around the results that the source calls inconclusive (neither active nor inactive); the mix of calls is not that of the screen. Calls come from the whole dose curve; as a rule, active = well fitted inhibition curve with a large enough effect; inconclusive = small, poorly fitted or top-dose-only effect, or another doubt; inactive = no such curve, though single readings can be large or run the other way. A potency beside an inconclusive call is a rough fit, not a confirmed value. % is set by controls: 0 for no effect and ±100 for the full control effect; potency is the fitted concentration of half-maximal effect; tags give direction and shape of the fitted curve."}
{"experiment": "qHTS Assay for Inhibitors of Hepatitis C Virus (HCV)", "conditions": "Huh7.5.1 HCVcc-Cre (HCVcc is cell-culture hepatitis C virus) infection, luciferase reporter, 44 h; activity change, negative = inhibition: at 41.8 µM (top of the series)", "method_in_brief": "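1,000 cells/well; 4 h culture; + compound; + HCVcc-Cre (~0.5 moi); 44 h; luciferase substrate, RT 15 min; read 15 sec.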"}
{"compound": "CN(Cc1ccccc1)C(=O)c1ccccc1NC(=O)C1=CSCCO1", "activity change, negative = inhibition": "inactive: -8.04%"}
{"compound": "COc1ccc(-c2sc3ccc(N4CCOCC4)cc3c2-c2ccc(OC)c(F)c2)cc1", "activity change, negative = inhibition": "inactive: -8.28%"}
{"compound": "O=C(COc1ccccc1Cl)Nc1nc(-c2ccncc2)cs1", "Potency": "active: 22.4 µM"}
{"compound": "CCn1c(C)nc2cc(C(=O)N/N=C/c3cccc(O)c3O)ccc21", "Potency": "inconclusive: 12.6 µM [inhibitor, single point]"}
{"compound": "COc1ccc(-c2csc3nc(C)nc(N4CCN(C(C)=O)CC4)c23)cc1OC", "activity change, negative = inhibition": "inactive: -0.588%"}
{"compound": "O=C1c2ccccc2-c2ccc(C(=O)N3CCCCC3)cc21", "activity change, negative = inhibition": "inactive: 13.1%"}
{"compound": "Cc1cccc(NS(=O)(=O)c2cccc(C(=O)NCC3(N4CCCCC4)CCCCC3)c2)c1", "Potency": "inconclusive: 10 µM [inhibitor, partial curve]"}
{"compound": "CC(C)NC(=O)N1CCCN(c2nc3ccc(Cl)cc3s2)CC1", "Potency": "active: 3.98 µM"}
{"compound": "c1ccc(OCCOCCN2CCN(C(c3ccccc3)c3ccccc3)CC2)cc1", "Potency": "inconclusive: 14.1 µM [inhibitor, single point]"}
{"compound": "CC(=O)c1c(C)[nH]c(C(=O)COC(=O)CCCOc2ccccc2)c1C", "activity change, negative = inhibition": "inactive: -0.187%"}
{"compound": "COc1ccc(NC(=O)c2cc(C)on2)cc1OC", "Potency": "inconclusive: 5.01 µM [inhibitor, single point]"}
{"compound": "NC(=O)C1(N2CCCCC2)CCN(c2nc(-c3ccccc3)cs2)CC1", "Potency": "inconclusive: 31.6 µM [inhibitor, single point]"}
{"compound": "COc1ccc2[nH]c(C)c(CCN(Cc3cccs3)C(=S)Nc3ccccc3)c2c1", "Potency": "inconclusive: 11.2 µM [inhibitor, single point]"}
{"compound": "CCCCC(CCC(=O)O)(C(=O)OCC)c1csc(Nc2ccc(C)cc2)n1", "note": "(stereo not given)", "activity change, negative = inhibition": "inactive: -18.1%"}
{"compound": "COc1cccc(CNS(=O)(=O)c2ccc3c(c2)CC(C)N3C(C)=O)c1", "note": "(stereo not given)", "activity change, negative = inhibition": "inactive: -7.76%"}
{"compound": "O=C(Nc1cccnc1)c1ccc(COc2ccccc2Br)o1", "Potency": "inconclusive: 10 µM [inhibitor, partial curve]"}
{"compound": "COc1cc(OC)cc(C(=O)N[C@H](C(=O)OCC(=O)Nc2cccnc2Cl)C(C)C)c1", "Potency": "inconclusive: 10 µM [inhibitor, partial curve]"}
{"compound": "O=C(Nc1cccnc1)c1cc2cc(Br)ccc2o1", "Potency": "inconclusive: 25.1 µM [inhibitor, single point]"}
{"compound": "O=C(Nc1ccc(F)cc1)Nc1nnc(Cc2ccccc2F)s1", "activity change, negative = inhibition": "inactive: -29.5%"}
{"compound": "Cc1ccc2c(c1)N(C(=O)CCC(=O)N1CCN(c3cccc(C)c3C)CC1)CCO2", "Potency": "active: 10 µM"}
{"compound": "CC(C(=O)Nc1ccc(S(=O)(=O)N2CCCC2)cc1)N1CCc2ccccc2C1", "note": "(stereo not given)", "Potency": "inconclusive: 10 µM [inhibitor, single point]"}
{"compound": "O=S(=O)(Nc1ccc2ccccc2n1)c1ccccc1Cl", "activity change, negative = inhibition": "inactive: 2.44%"}
{"compound": "COc1ccc(-c2ccc3c(c2)[C@@H]2C[C@H](N(C)S(=O)(=O)c4ccccc4)[C@H]([C@H](C)O)C(=O)N2CC3)cc1", "Potency": "inconclusive: 3.16 µM [inhibitor, single point]"}
{"compound": "Cc1cc(N2CC(C)OC(C)C2)nc2ccccc12", "note": "(stereo not given)", "Potency": "inconclusive: 0.501 µM [inhibitor, full curve, poor fit]"}
{"compound": "CC1Cc2ccccc2N1C(=O)Cn1cnc2ccccc21", "note": "(stereo not given)", "Potency": "inconclusive: 11.2 µM [inhibitor, single point]"}
{"compound": "CC(C)CC(O)C1CCN(C(=O)CCc2nnc(-c3ccccc3)o2)CC1", "note": "(stereo not given)", "activity change, negative = inhibition": "inactive: 7.8%"}
{"compound": "CN(C(=O)c1cccc(NC(=O)Cc2ccc(NC(=O)C3CCCN(C(=O)C4CCCC4)C3)cc2)c1)C1CCC1", "note": "(stereo not given)", "activity change, negative = inhibition": "inactive: -26.3% [at 8.37 µM]"}
{"compound": "CCOC(=O)Cc1cc(-c2ccc(O)cc2)nc2ccc3ccccc3c12", "Potency": "inconclusive: 7.94 µM [inhibitor, partial curve]"}
{"compound": "Cc1sc2nc(SCc3nc4ccccc4[nH]3)n(Cc3ccco3)c(=O)c2c1C", "Potency": "inconclusive: 20 µM [inhibitor, partial curve]"}
{"compound": "Cc1cc(C)c(OCC(=O)Nc2ccccc2N2CCOCC2)c(C)c1", "Potency": "inconclusive: 31.6 µM [inhibitor, single point]"}
{"compound": "CCOC(=O)c1cc(-c2ccc(OC)cc2)nc2c1c(C)nn2CCC(N)=S", "Potency": "inconclusive: 31.6 µM [inhibitor, single point]"}
{"compound": "Cc1ccc(C)c(S(=O)(=O)N2CCCC2CNC(=O)C(=O)NCc2ccco2)c1", "note": "(stereo not given)", "activity change, negative = inhibition": "inactive: -0.191%"}
{"compound": "O=C(Nc1cccc(-c2nc3cccnc3s2)c1)c1cccnc1Cl", "activity change, negative = inhibition": "inactive: -24.5%"}
{"compound": "Cc1ccc(NC(=O)c2ncn(CC(=O)NCc3ccc4c(c3)OCO4)n2)cc1C", "Potency": "inconclusive: 12.6 µM [inhibitor, single point]"}
{"compound": "Clc1cncc(Cl)c1NNc1c2ccccc2nc2ccccc12", "Potency": "inconclusive: 31.6 µM [inhibitor, single point]"}
{"compound": "CCOc1ccc(C(=O)Nc2cccc(-c3nc4ccccc4[nH]3)c2C)cc1[N+](=O)[O-]", "Potency": "inconclusive: 11.2 µM [inhibitor, partial curve, poor fit]"}
{"compound": "Cc1cc(C)c(C#N)c(SCCS(=O)(=O)c2ccc(Cl)cc2)n1", "Potency": "inconclusive: 3.16 µM [inhibitor, single point]"}
{"compound": "CC1(C)Cc2c(cnn2-c2cccc(F)c2)C(NC(=O)CCN2CCCC2=O)C1", "note": "(stereo not given)", "activity change, negative = inhibition": "inactive: 4.06%"}
{"compound": "O=S(=O)(Nc1ccc2c(c1)nc1n2CCN(Cc2ccccc2)C1)c1ccc(F)cc1", "Potency": "inconclusive: 31.6 µM [inhibitor, single point]"}
{"compound": "O=C(CCc1c[nH]c2ccccc12)NCCc1ccc2c(c1)OCCO2", "Potency": "inconclusive: 10 µM [inhibitor, partial curve]"}
{"compound": "COc1ccc(CNC(=O)C(=O)NCC2CCCO2)cc1", "note": "(stereo not given)", "activity change, negative = inhibition": "inactive: 10.7%"}
{"compound": "CCc1nnc(NC(=O)Cc2ccc(OCc3c(C)noc3C)cc2)s1", "Potency": "inconclusive: 2.82 µM [inhibitor, single point]"}
{"compound": "O=C(CN1CCNCC1)Nc1ccc(Oc2ccccc2)cc1", "Potency": "active: 7.94 µM"}
{"compound": "CCCn1c(SCC(=O)Nc2ccccc2-c2ccccc2)nnc1-c1ccoc1C", "Potency": "inconclusive: 15.8 µM [inhibitor, partial curve]"}
{"compound": "Cc1onc(-c2ccccc2)c1C(=O)N1CCN(Cc2ccccc2)CC1", "activity change, negative = inhibition": "inactive: -8.55%"}
{"compound": "O=C1c2ccccc2NC(c2cccc(O)c2)N1NS(=O)(=O)c1ccccc1", "note": "(stereo not given)", "Potency": "inconclusive: 31.6 µM [inhibitor, single point]"}
{"compound": "O=C(c1cccc(S(=O)(=O)NCc2ccccc2)c1)N1CCN(c2cccc(C(F)(F)F)c2)CC1", "Potency": "inconclusive: 31.6 µM [inhibitor, single point]"}
{"compound": "COc1ccc(C(=O)c2ccc(Cl)cc2)cc1", "Potency": "inconclusive: 5.62 µM [inhibitor, single point]"}
{"compound": "Cc1ccc(C(=O)Nc2cc(Cl)ccc2-n2cncn2)s1", "Potency": "inconclusive: 14.1 µM [inhibitor, single point]"}
{"compound": "C=CCC[C@H](Cc1ccc(F)cc1)C(=O)OC[C@@H](Cc1c[nH]c2ccccc12)NC(=O)[C@@H](CC=C)CC(=O)N[C@H](CO)Cc1ccccc1", "Potency": "inconclusive: 7.94 µM [inhibitor, partial curve]"}
{"compound": "O=C(NCc1ccco1)/C(=C\\c1cccs1)NC(=O)c1cccs1", "activity change, negative = inhibition": "inactive: 7.02%"}
{"compound": "Cc1sc(NC(=O)c2ccco2)nc1-c1ccccc1", "Potency": "active: 14.1 µM"}
{"compound": "CCc1nonc1NC(=O)c1oc2ccccc2c1C", "activity change, negative = inhibition": "inactive: -25%"}
{"compound": "Cc1cc(C)c(NC(=O)COc2nc3ccccc3nc2C)c(C)c1", "Potency": "active: 11.2 µM"}
{"compound": "CN(CC1COc2ccccc2O1)c1nc(-c2cccnc2)nc2ccccc12", "note": "(stereo not given)", "Potency": "active: 11.2 µM"}
{"compound": "COc1cc(OC)cc(C(=O)NCC(=O)OCC(=O)/C=C2/N(C)c3ccccc3C2(C)C)c1", "Potency": "inconclusive: 22.4 µM [inhibitor, single point]"}
{"compound": "CC(OC(=O)c1ccco1)C(=O)Nc1ccc(C(F)(F)F)cc1", "note": "(stereo not given)", "Potency": "inconclusive: 11.2 µM [inhibitor, single point]"}
{"compound": "Cc1c(C(=O)N2CCN(S(=O)(=O)c3ccccc3)CC2)oc2ccc(Br)cc12", "Potency": "inconclusive: 14.1 µM [inhibitor, single point]"}
{"compound": "COc1ccc(CNC(=O)CCS(=O)(=O)c2ccc3c(c2)oc(=O)n3C)cc1", "activity change, negative = inhibition": "inactive: 11.7%"}
{"compound": "Cc1cc(-n2c(SCC(=O)Nc3ccc(F)c(F)c3)nc3n[nH]c(C)c3c2=N)ccc1Cl", "Potency": "inconclusive: 0.631 µM [inhibitor, full curve]"}
{"compound": "CCN(CC)S(=O)(=O)c1ccc(N2CCOCC2)c(NC(=O)c2cc(Cl)c3c(c2)OCO3)c1", "Potency": "inconclusive: 20 µM [inhibitor, single point]"}
{"compound": "CCCCc1nc2cc(C(=O)N3CCN(c4nc(C)cnc4C)CC3)ccc2o1", "Potency": "inconclusive: 10 µM [inhibitor, partial curve]"}
{"compound": "Cc1ccc(NS(=O)(=O)c2ccc(N3CCN(c4ccc(O)cc4)CC3)c([N+](=O)[O-])c2)c(C)c1", "Potency": "inconclusive: 25.1 µM [inhibitor, single point]"}
{"compound": "COc1cccc2c1-c1c(O)cccc1C2=O", "activity change, negative = inhibition": "inactive: 1.02%"}
{"compound": "Cc1ccccc1NC(=S)/C(=C(\\[O-])c1cc(C)n(Cc2ccccc2Cl)c1C)[n+]1ccccc1", "Potency": "inconclusive: 31.6 µM [inhibitor, single point]"}
{"compound": "Cc1cc(=O)[nH]c(N/N=C2/CCCC/C2=C\\c2ccccc2)n1", "activity change, negative = inhibition": "inactive: -5.95%"}
{"compound": "Cc1ccc(C)c(S(=O)(=O)N2CCN(C(=O)CCCc3c[nH]c4ccccc34)CC2)c1", "Potency": "inconclusive: 22.4 µM [inhibitor, single point]"}
{"compound": "C=CCn1c(COc2ccc(Cl)cc2)nnc1SCC(=O)N1CC(=O)Nc2ccccc21", "Potency": "inactive and inconclusive: 31.6 µM [inhibitor, single point]"}
{"compound": "O=c1oc2cc(OCCO)ccc2c2c1CCCC2", "activity change, negative = inhibition": "inactive: -10.2%"}
{"compound": "CC1Cc2ccccc2N1C(=O)CSc1ccccc1", "note": "(stereo not given)", "Potency": "inconclusive: 5.62 µM [inhibitor, single point]"}
